Measurements: the supplement of paper PMC8728848
The other results are listed elsewhere or left out.

Legend:
Test in all cases: glycan array binding signal (z-score within array); higher = stronger binding
Conditions in all cases: glycan notation: IUPAC condensed, linker removed
Fuc(a1-2)Gal = target: Fuc(a1-2)Gal
Summary of the method: (§1)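 Glycan array binding is given as a within-array Z-score, which can be read as non-binding when negative. The arrays, 3228 of them, came from the Consortium for Functional Glycomics database and were retained only where the protein sequence was available. Z-scores were averaged across arrays of the same protein sequence at different concentrations or buffers and across linkers.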

Fuc(a1-2)Gal(b1-3)GalNAc = target: Fuc(a1-2)Gal(b1-3)GalNAc
Summary of the method: as §1

[1] = target: Fuc(a1-2)Gal(b1-3)GalNAc(a1-3)[Fuc(a1-2)]Gal(b1-4)Glc
Summary of the method: as §1

[2] = target: Fuc(a1-2)Gal(b1-3)GalNAc(a1-3)[Fuc(a1-2)]Gal(b1-4)GlcNAc
Summary of the method: as §1

[3] = target: Fuc(a1-2)Gal(b1-3)GalNAc(b1-3)Gal
Summary of the method: as §1

[4] = target: Fuc(a1-2)Gal(b1-3)GalNAc(b1-3)Gal(a1-4)Gal(b1-4)Glc
Summary of the method: as §1

[5] = target: Fuc(a1-2)Gal(b1-3)GalNAc(b1-4)[Neu5Ac(a2-3)]Gal(b1-4)Glc
Summary of the method: as §1

Fuc(a1-2)Gal(b1-3)GlcNAc = target: Fuc(a1-2)Gal(b1-3)GlcNAc
Summary of the method: as §1

[6] = target: Fuc(a1-2)Gal(b1-3)GlcNAc(b1-2)Man(a1-3)[Fuc(a1-2)Gal(b1-3)GlcNAc(b1-2)Man(a1-6)]Man(b1-4)GlcNAc(b1-4)GlcNAc
Summary of the method: as §1

[7] = target: Fuc(a1-2)Gal(b1-3)GlcNAc(b1-2)Man(a1-3)[Fuc(a1-2)Gal(b1-3)GlcNAc(b1-2)Man(a1-6)]Man(b1-4)GlcNAc(b1-4)[Fuc(a1-6)]GlcNAc
Summary of the method: as §1

[8] = target: Fuc(a1-2)Gal(b1-3)GlcNAc(b1-3)Gal(b1-4)Glc
Summary of the method: as §1

[9] = target: Fuc(a1-2)Gal(b1-3)GlcNAc(b1-3)GalNAc
Summary of the method: as §1

[10] = target: Fuc(a1-2)Gal(b1-3)GlcNAc(b1-3)[Fuc(a1-2)Gal(b1-3)GlcNAc(b1-6)]GalNAc
Summary of the method: as §1

[11] = target: Fuc(a1-2)Gal(b1-3)GlcNAc(b1-3)[Gal(b1-4)GlcNAc(b1-6)]Gal(b1-4)Glc
Summary of the method: as §1

[12] = target: Fuc(a1-2)Gal(b1-3)GlcNAc(b1-3)[Neu5Ac(a2-6)Gal(b1-4)GlcNAc(b1-6)]Gal(b1-4)Glc
Summary of the method: as §1

[13] = target: Fuc(a1-2)Gal(b1-3)GlcNAc6S
Summary of the method: as §1

[14] = target: Fuc(a1-2)Gal(b1-3)[Fuc(a1-4)]GlcNAc
Summary of the method: as §1

[15] = target: Fuc(a1-2)Gal(b1-3)[Fuc(a1-4)]GlcNAc(b1-2)Man(a1-3)[Fuc(a1-2)Gal(b1-3)[Fuc(a1-4)]GlcNAc(b1-2)Man(a1-3)]Man(b1-4)GlcNAc(b1-4)GlcNAc
Summary of the method: as §1

[16] = target: Fuc(a1-2)Gal(b1-3)[Fuc(a1-4)]GlcNAc(b1-2)Man(a1-3)[Fuc(a1-2)Gal(b1-3)[Fuc(a1-4)]GlcNAc(b1-2)Man(a1-6)]Man(b1-4)GlcNAc(b1-4)[Fuc(a1-6)]GlcNAc(b1-4)[Fuc(a1-6)]GlcNAc
Summary of the method: as §1

[17] = target: Fuc(a1-2)Gal(b1-3)[Fuc(a1-4)]GlcNAc(b1-3)[Fuc(a1-3)[Gal(b1-4)]GlcNAc(b1-6)]Gal(b1-4)Glc
Summary of the method: as §1

[18] = target: Fuc(a1-2)Gal(b1-3)[Fuc(a1-4)]GlcNAc(b1-3)[Gal(b1-4)GlcNAc(b1-6)]Gal(b1-4)Glc
Summary of the method: as §1

Fuc(a1-2)Gal(b1-4)Glc = target: Fuc(a1-2)Gal(b1-4)Glc
Summary of the method: as §1

Fuc(a1-2)Gal(b1-4)Glc6S = target: Fuc(a1-2)Gal(b1-4)Glc6S
Summary of the method: as §1

Fuc(a1-2)Gal(b1-4)GlcNAc = target: Fuc(a1-2)Gal(b1-4)GlcNAc
Summary of the method: as §1

[19] = target: Fuc(a1-2)Gal(b1-4)GlcNAc(b1-2)Man
Summary of the method: as §1

[20] = target: Fuc(a1-2)Gal(b1-4)GlcNAc(b1-2)Man(a1-3)[Fuc(a1-2)Gal(b1-4)GlcNAc(b1-2)Man(a1-6)]Man(b1-4)GlcNAc(b1-4)GlcNAc
Summary of the method: as §1

[21] = target: Fuc(a1-2)Gal(b1-4)GlcNAc(b1-2)Man(a1-3)[Fuc(a1-2)Gal(b1-4)GlcNAc(b1-2)Man(a1-6)]Man(b1-4)GlcNAc(b1-4)[Fuc(a1-6)]GlcNAc
Summary of the method: as §1

[22] = target: Fuc(a1-2)Gal(b1-4)GlcNAc(b1-2)[Fuc(a1-2)Gal(b1-4)GlcNAc(b1-4)]Man(a1-3)[Fuc(a1-2)Gal(b1-4)GlcNAc(b1-2)Man(a1-6)]Man(b1-4)GlcNAc(b1-4)GlcNAc
Summary of the method: as §1

[23] = target: Fuc(a1-2)Gal(b1-4)GlcNAc(b1-3)Gal(b1-4)GlcNAc
Summary of the method: as §1

[24] = target: Fuc(a1-2)Gal(b1-4)GlcNAc(b1-3)Gal(b1-4)GlcNAc(b1-2)Man(a1-3)[Fuc(a1-2)Gal(b1-4)GlcNAc(b1-3)Gal(b1-4)GlcNAc(b1-2)Man(a1-6)]Man(b1-4)GlcNAc(b1-4)GlcNAc
Summary of the method: as §1

[25] = target: Fuc(a1-2)Gal(b1-4)GlcNAc(b1-3)Gal(b1-4)GlcNAc(b1-3)Gal(b1-4)GlcNAc
Summary of the method: as §1

[26] = target: Fuc(a1-2)Gal(b1-4)GlcNAc(b1-3)GalNAc
Summary of the method: as §1

[27] = target: Fuc(a1-2)Gal(b1-4)GlcNAc(b1-3)[Fuc(a1-2)Gal(b1-4)GlcNAc(b1-6)]GalNAc
Summary of the method: as §1

[28] = target: Fuc(a1-2)Gal(b1-4)GlcNAc(b1-3)[Fuc(a1-3)[Gal(b1-4)]GlcNAc(b1-6)]Gal(b1-4)Glc
Summary of the method: as §1

[29] = target: Fuc(a1-2)Gal(b1-4)GlcNAc(b1-6)GalNAc
Summary of the method: as §1

[30] = target: Fuc(a1-2)Gal(b1-4)GlcNAc6S
Summary of the method: as §1

[31] = target: Fuc(a1-2)Gal(b1-4)[Fuc(a1-3)]GlcNAc
Summary of the method: as §1

[32] = target: Fuc(a1-2)Gal(b1-4)[Fuc(a1-3)]GlcNAc(b1-2)Man(a1-3)[Fuc(a1-2)Gal(b1-4)[Fuc(a1-3)]GlcNAc(b1-2)Man(a1-6)]Man(b1-4)GlcNAc(b1-4)[Fuc(a1-6)]GlcNAc
Summary of the method: as §1

[33] = target: Fuc(a1-2)Gal(b1-4)[Fuc(a1-3)]GlcNAc(b1-2)[Fuc(a1-2)Gal(b1-4)[Fuc(a1-3)]GlcNAc(b1-4)]Man(a1-3)[Fuc(a1-2)Gal(b1-4)[Fuc(a1-3)]GlcNAc(b1-2)Man(a1-6)]Man(b1-4)GlcNAc(b1-4)GlcNAc
Summary of the method: as §1

[34] = target: Fuc(a1-2)Gal(b1-4)[Fuc(a1-3)]GlcNAc(b1-3)Gal(b1-4)[Fuc(a1-3)]GlcNAc
Summary of the method: as §1

[35] = target: Fuc(a1-2)Gal(b1-4)[Fuc(a1-3)]GlcNAc(b1-3)Gal(b1-4)[Fuc(a1-3)]GlcNAc(b1-3)Gal(b1-4)[Fuc(a1-3)]GlcNAc
Summary of the method: as §1

[36] = target: Fuc(a1-2)Gal(b1-4)[Fuc(a1-3)]GlcNAc(b1-3)GalNAc
Summary of the method: as §1

[37] = target: Fuc(a1-2)Gal(b1-4)[Fuc(a1-3)]GlcNAc(b1-3)[Neu5Ac(a2-6)Gal(b1-4)GlcNAc(b1-6)]Gal(b1-4)Glc
Summary of the method: as §1

[38] = target: Fuc(a1-2)Gal3S(b1-4)GlcNAc
Summary of the method: as §1

[39] = target: Fuc(a1-2)Gal6S(b1-3)GlcNAc
Summary of the method: as §1

B1: PfulAvr4 2 (Pseudocercospora fuligena) (protein)
chain: HHHHHHDYKDDDDKAKPIKPFACPPKDFTTTKCQGPVDCLYANPLSCLGYIQCVCDDDACSTATPYAKSCPTGLAWVEKLKRCDGIKKSACPKKMYEGS
Fuc(a1-2)Gal
  glycan array binding signal (z-score): 0.036
Fuc(a1-2)Gal(b1-3)GalNAc
  glycan array binding signal (z-score): -0.34
[1]
  glycan array binding signal (z-score): -0.383
[2]
  glycan array binding signal (z-score): -0.267
[3]
  glycan array binding signal (z-score): 0.018
[4]
  glycan array binding signal (z-score): 0.285
[5]
  glycan array binding signal (z-score): -0.339
Fuc(a1-2)Gal(b1-3)GlcNAc
  glycan array binding signal (z-score): -0.301
[6]
  glycan array binding signal (z-score): 1.82
[7]
  glycan array binding signal (z-score): 1.04
[8]
  glycan array binding signal (z-score): -0.327
[9]
  glycan array binding signal (z-score): -0.211
[10]
  glycan array binding signal (z-score): 0.112
[11]
  glycan array binding signal (z-score): -0.337
[12]
  glycan array binding signal (z-score): -0.387
[13]
  glycan array binding signal (z-score): -0.278
[14]
  glycan array binding signal (z-score): -0.222
[15]
  glycan array binding signal (z-score): 1.91
[16]
  glycan array binding signal (z-score): -0.058
[17]
  glycan array binding signal (z-score): -0.264
[18]
  glycan array binding signal (z-score): -0.357
Fuc(a1-2)Gal(b1-4)Glc
  glycan array binding signal (z-score): 0.315
Fuc(a1-2)Gal(b1-4)Glc6S
  glycan array binding signal (z-score): 0.893
Fuc(a1-2)Gal(b1-4)GlcNAc
  glycan array binding signal (z-score): -0.098
[19]
  glycan array binding signal (z-score): 1.45
[20]
  glycan array binding signal (z-score): -0.155
[21]
  glycan array binding signal (z-score): 2.88
[22]
  glycan array binding signal (z-score): 0.781
[23]
  glycan array binding signal (z-score): -0.271
[24]
  glycan array binding signal (z-score): 0.624
[25]
  glycan array binding signal (z-score): -0.123
[26]
  glycan array binding signal (z-score): 0.36
[27]
  glycan array binding signal (z-score): -0.239
[28]
  glycan array binding signal (z-score): -0.327
[29]
  glycan array binding signal (z-score): 0.04
[30]
  glycan array binding signal (z-score): -0.143
[31]
  glycan array binding signal (z-score): -0.325
[32]
  glycan array binding signal (z-score): -0.242
[33]
  glycan array binding signal (z-score): 4.77
[34]
  glycan array binding signal (z-score): -0.355
[35]
  glycan array binding signal (z-score): -0.228
[36]
  glycan array binding signal (z-score): -0.346
[37]
  glycan array binding signal (z-score): -0.41
[38]
  glycan array binding signal (z-score): -0.337
[39]
  glycan array binding signal (z-score): -0.095
